Experimental data as given in the supplement of paper PMC3334620.
In all, about 33,000 sequences were measured (“E-score (-0.5 to 0.5)”: median about -0.017, highest 2% from about 0.3 on). The list shows a part of the results.

The sequences below were run against T1, Sut1 (UniProt P53032) (assay: PBM E-score (8-mer binding enrichment) (E-score (-0.5 to 0.5)); higher = stronger / more preferred TF binding; most listed sequences are background and not binding sites). Conditions: protein concentration: 200 nM; construct: GST-full length.
T1 sequence: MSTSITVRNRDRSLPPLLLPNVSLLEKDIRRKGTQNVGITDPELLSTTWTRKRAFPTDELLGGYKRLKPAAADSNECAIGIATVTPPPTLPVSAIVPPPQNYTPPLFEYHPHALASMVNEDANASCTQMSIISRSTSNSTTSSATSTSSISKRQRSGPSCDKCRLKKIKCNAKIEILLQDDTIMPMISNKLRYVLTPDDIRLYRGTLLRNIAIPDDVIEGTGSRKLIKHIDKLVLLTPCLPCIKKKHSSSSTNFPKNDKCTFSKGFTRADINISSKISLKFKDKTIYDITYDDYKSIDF
Protocol: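 Universal 'all 10-mer' protein binding microarrays (Agilent AMADID 015681) probed with GST-tagged S. cerevisiae TFs (full-length or DBD) made by in vitro transcription/translation (PURExpress), about 100-200 nM. Bound TF was detected with fluorescent anti-GST. Each ungapped 8-mer (which stands for itself and its reverse complement) is scored by the PBM enrichment score (E-score), a modified Wilcoxon-Mann-Whitney statistic from -0.5 to +0.5, computed with the Universal PBM Analysis Suite. Scale: above 0.35 generally sequence-specific binding.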
CGTACGAC was tested, and the “PBM E-score” value was 0.0392. CAGATCAC was tested, and the “PBM E-score” value was 0.0266. With CGATGGAG the “PBM E-score” value was 0.0475. For GTGATTCA, the “PBM E-score” value was -0.119. In the case of CGGCGGGC, the “PBM E-score” value is reported as -0.0779. ACGCTGGG was tested, and the “PBM E-score” value was -0.254. With GGTAGTTA the “PBM E-score” value was 0.166. AGTAACAA was tested, and the “PBM E-score” value was 0.138. CGCCTACA was tested, and the “PBM E-score” value was 0.00062. For CGCCTAGC, the “PBM E-score” value was -0.211. For GCACGCAA, the “PBM E-score” value was -0.143. With GGAATATA the “PBM E-score” value was 0.088. In the case of CTACAGAG, the “PBM E-score” value is reported as -0.133. ATGGTGGC was tested, and the “PBM E-score” value was -0.286. For GAGTCATA, the “PBM E-score” value was 0.0512. With ATATTTAC the “PBM E-score” value was 0.282. With AAAAGTGA the “PBM E-score” value was 0.237. GGAACGGA was tested, and the “PBM E-score” value was 0.211. In the case of CATGCAAG, the “PBM E-score” value is reported as -0.0592. With CCGAGCTA the “PBM E-score” value was 0.0447. With CACGAGGA the “PBM E-score” value was -0.225. For TATGTAGA, the “PBM E-score” value was 0.0717. With AGATGAGC the “PBM E-score” value was -0.0376. ATCCTGTA was tested, and the “PBM E-score” value was 0.0559. With AGCAAATG the “PBM E-score” value was -0.0134. For TAGAGACA, the “PBM E-score” value was -0.00896. In the case of GGCATTAC, the “PBM E-score” value is reported as 0.0477. With GAGATCTC the “PBM E-score” value was 0.126. In the case of CAATCGGG, the “PBM E-score” value is reported as -0.0802. In the case of CTGCGTCC, the “PBM E-score” value is reported as -0.193. In the case of GGCTTTAA, the “PBM E-score” value is reported as 0.0546. CGCGTCAA was tested, and the “PBM E-score” value was -0.0129. With ATCGTGAG the “PBM E-score” value was -0.0729. With AGCCAAAC the “PBM E-score” value was 0.0722. With CGAATCTC the “PBM E-score” value was 0.037. In the case of ATACTAAA, the “PBM E-score” value is reported as 0.202. In the case of ATGCCTAA, the “PBM E-score” value is reported as -0.021. For CGCTGGAG, the “PBM E-score” value was -0.102. For CACGAACG, the “PBM E-score” value was -0.0455. With CTAACGTC the “PBM E-score” value was 0.0521. In the case of GAGGACTA, the “PBM E-score” value is reported as 0.0368. With GAGTGACA the “PBM E-score” value was 0.0371. With ACCGCCTG the “PBM E-score” value was -0.21. ATCTACCA was tested, and the “PBM E-score” value was 0.0706. With CCCACCAC the “PBM E-score” value was -0.114. GATGGTGA was tested, and the “PBM E-score” value was -0.174. In the case of GACTGCGA, the “PBM E-score” value is reported as 0.00432. For AACCTCCA, the “PBM E-score” value was -0.137. GCGGGAAC was tested, and the “PBM E-score” value was -0.186. With AATAAGCA the “PBM E-score” value was 0.152. For AGGGTCGC, the “PBM E-score” value was 0.0486. For GAACGAGC, the “PBM E-score” value was -0.135. In the case of ACGCCAAG, the “PBM E-score” value is reported as -0.26. CCGGGCTC was tested, and the “PBM E-score” value was 0.0382. In the case of AATTATCA, the “PBM E-score” value is reported as 0.206. In the case of AGGACACG, the “PBM E-score” value is reported as -0.106. AGTCTTGA was tested, and the “PBM E-score” value was -0.174. For ACTGGGGA, the “PBM E-score” value was -0.236. With ATACGCAA the “PBM E-score” value was 0.0176. With AACTGGAC the “PBM E-score” value was -0.265. CGATTCAC was tested, and the “PBM E-score” value was 0.0111. With AAGAAGCG the “PBM E-score” value was -0.12. For AACTTTCA, the “PBM E-score” value was 0.124. GCTCTCCA was tested, and the “PBM E-score” value was -0.151. With CTGACCGA the “PBM E-score” value was -0.114. With AAAGAACC the “PBM E-score” value was 0.163. AAAGGCCT was tested, and the “PBM E-score” value was -0.134. For GCAGCGTA, the “PBM E-score” value was -0.144. CTTTTTGC was tested, and the “PBM E-score” value was 0.0242. With AGATGTAG the “PBM E-score” value was -0.0688. In the case of TACTGATA, the “PBM E-score” value is reported as 0.151. AGTCACAC was tested, and the “PBM E-score” value was -0.139. With GCGCGTAA the “PBM E-score” value was -0.0752. For ATTTAGAC, the “PBM E-score” value was 0.0745. CTAGTTCA was tested, and the “PBM E-score” value was 0.149. For AGATCGGC, the “PBM E-score” value was -0.0946. In the case of AGGGATAG, the “PBM E-score” value is reported as -0.179. CAAGCTGG was tested, and the “PBM E-score” value was -0.243. In the case of TCATTCGA, the “PBM E-score” value is reported as 0.0139. With TAGATAGA the “PBM E-score” value was 0.153. With AAACCGGG the “PBM E-score” value was 0.00149. ATTGCAAC was tested, and the “PBM E-score” value was 0.0207. With CCAACGCC the “PBM E-score” value was -0.24. CTGGAAGA was tested, and the “PBM E-score” value was -0.0626. In the case of ATTTTTCC, the “PBM E-score” value is reported as 0.17. For AACTGCGA, the “PBM E-score” value was 0.0109. In the case of AACCCCAG, the “PBM E-score” value is reported as -0.158. AACCCCCG was tested, and the “PBM E-score” value was -0.193. AGGTGCGA was tested, and the “PBM E-score” value was -0.276. For GCTGCTGA, the “PBM E-score” value was -0.0171. For AGAAAGAA, the “PBM E-score” value was 0.205. With ATTACCGG the “PBM E-score” value was 0.162. For CATCCTGG, the “PBM E-score” value was -0.148. With TCTAGTAA the “PBM E-score” value was 0.124. In the case of ATGGATGG, the “PBM E-score” value is reported as -0.104. With CGGCTCGA the “PBM E-score” value was -0.00416. With CCATTGGC the “PBM E-score” value was -0.115. For AGTTTCGA, the “PBM E-score” value was 0.0435. In the case of ATTAGCAG, the “PBM E-score” value is reported as -0.00581. For TCGCGCCA, the “PBM E-score” value was -0.0197. ATTACTAC was tested, and the “PBM E-score” value was 0.111. In the case of TCATTAGA, the “PBM E-score” value is reported as 0.0867. AGACCTGG was tested, and the “PBM E-score” value was -0.317. In the case of ACAGCCGT, the “PBM E-score” value is reported as -0.222. In the case of CGTAGGAA, the “PBM E-score” value is reported as 0.00468. For AAGTTATA, the “PBM E-score” value was 0.186. For ATGCTAGA, the “PBM E-score” value was 0.0093. ACCGAACC was tested, and the “PBM E-score” value was -0.0678. GGCGTATA was tested, and the “PBM E-score” value was -0.112. With ACAAAGCG the “PBM E-score” value was 0.0555. For GATTAACA, the “PBM E-score” value was 0.142. ACGGAGAC was tested, and the “PBM E-score” value was 0.232. GCTAGCGA was tested, and the “PBM E-score” value was -0.0898. AACTTTCC was tested, and the “PBM E-score” value was 0.0535. TACCTACA was tested, and the “PBM E-score” value was -0.0369. In the case of ACCCGAGT, the “PBM E-score” value is reported as -0.0972. In the case of ACTAACCG, the “PBM E-score” value is reported as 0.0114. For ATAAGAAA, the “PBM E-score” value was 0.176. With TAGTCGGA the “PBM E-score” value was 0.317. With ATCGTAGA the “PBM E-score” value was -0.0915. For TTATCGAA, the “PBM E-score” value was 0.239. With CTAACTCC the “PBM E-score” value was 0.221. CTTACGTA was tested, and the “PBM E-score” value was -0.0235. For AACGAGAA, the “PBM E-score” value was 0.182. AACGAAAA was tested, and the “PBM E-score” value was 0.0998. CTATAGAA was tested, and the “PBM E-score” value was 0.124. In the case of GATGATCC, the “PBM E-score” value is reported as 0.0171. For AGGTGGTG, the “PBM E-score” value was -0.244. CCGGAGAG was tested, and the “PBM E-score” value was 0.253. CTAACCGC was tested, and the “PBM E-score” value was -0.179. In the case of ATGCTTTC, the “PBM E-score” value is reported as 0.106. In the case of GAACTTGA, the “PBM E-score” value is reported as 0.0807. ACGGACCG was tested, and the “PBM E-score” value was -0.0134. In the case of AAAAGAAG, the “PBM E-score” value is reported as 0.126. In the case of GGTATTTA, the “PBM E-score” value is reported as 0.113. In the case of GTTGTCGA, the “PBM E-score” value is reported as -0.166. GATGCACA was tested, and the “PBM E-score” value was -0.18. In the case of ATTTCCCC, the “PBM E-score” value is reported as -0.0345. For AGCACATA, the “PBM E-score” value was 0.0233. With ATGATGTA the “PBM E-score” value was 0.22. In the case of ACTCGGGC, the “PBM E-score” value is reported as -0.0385. For AAGCGAGT, the “PBM E-score” value was -0.0164. In the case of ACTTATAG, the “PBM E-score” value is reported as 0.0142. In the case of ATAAAGAC, the “PBM E-score” value is reported as 0.126. With ATTAAAAG the “PBM E-score” value was 0.207. For ATCCGCTC, the “PBM E-score” value was -0.0411. ATCGCCAT was tested, and the “PBM E-score” value was 0.0141. GTCGCGTA was tested, and the “PBM E-score” value was -0.0265. AAACGCGA was tested, and the “PBM E-score” value was -0.0339. With TGAGAACA the “PBM E-score” value was 0.113. For GAAGGGGC, the “PBM E-score” value was -0.265. In the case of CGAAGTAC, the “PBM E-score” value is reported as 0.101. For CATCTTGG, the “PBM E-score” value was -0.0952. CATCGGCA was tested, and the “PBM E-score” value was -0.0361. For AGTGATAT, the “PBM E-score” value was 0.0292. For GGATTACA, the “PBM E-score” value was 0.0508. In the case of ACACACAC, the “PBM E-score” value is reported as 0.0716. In the case of CGAGAATA, the “PBM E-score” value is reported as 0.0119. In the case of GCAGTACA, the “PBM E-score” value is reported as -0.21. In the case of TACTTGAA, the “PBM E-score” value is reported as 0.0853. With AGGGCGGG the “PBM E-score” value was -0.105. AGACCAAT was tested, and the “PBM E-score” value was 0.0669. For CAACGAAG, the “PBM E-score” value was -0.0703. In the case of ATATGTTG, the “PBM E-score” value is reported as 0.121. In the case of CTACCAAG, the “PBM E-score” value is reported as -0.106. For AGCGTACT, the “PBM E-score” value was 0.0192. AAGGCCAG was tested, and the “PBM E-score” value was -0.00339. AGGTGCAA was tested, and the “PBM E-score” value was -0.0176. GTCGAGAA was tested, and the “PBM E-score” value was -0.0575. For CCCCAAAG, the “PBM E-score” value was -0.173. GGAAATCA was tested, and the “PBM E-score” value was 0.104. For GTGAAGAA, the “PBM E-score” value was 0.0729.
